Data: PubChem BioAssay AID662 (National Center for Advancing Translational Sciences (NCATS), 2007)
In all, about 71,000 compounds went through this assay and about 1,800 (2.5%) were called active. Inconclusive means that the source gave no clear call. Such entries were picked first, then a sample of the others. The call rests on the fitted dose curve; in most records, active means well fitted activation curve with a large enough effect in the signal ratio, with a control signal flat (not every such curve was filed as active); inconclusive means small, poorly fitted or top-dose-only effect, or effect the other way, or a change in a side signal; inactive means flat fitted curve, though single readings scatter; the % refers to the signal ratio. Where the call is inconclusive, the potency comes from a doubtful curve fit. Some compounds were tested as several samples or in several runs, with calls that do not always agree.

Assay: Cell signaling CRE-BLA (Fsk stim); on activity change, negative = inhibition: % of control where 0% means no effect
Details: CHO CRE-bla reporter (cAMP response element driving beta-lactamase), forskolin EC10, beta-lactamase ratio; activity change, negative = inhibition: at 38.2 µM (top of the series) unless noted
Outline: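 Modulation of forskolin signalling: compounds in titration series added with EC10 NKH 477 to CHO cells carrying a CRE-driven beta-lactamase reporter, 3 h, 37C. CCF4 FRET ratio (460/530 nm, ex 405 nm) gives %activity and AC50.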
Potency means the concentration at half of the fitted maximal effect; tags describe the fitted curve by direction and shape.

SMILES	activity change, negative = inhibition	Potency
Cc1cc(C)n2nc(C(=O)OCCOc3ccc(F)cc3)nc2n1	inconclusive: 20.7%	
O=C(CCCN1CCC(O)(c2cccc(C(F)(F)F)c2)CC1)c1ccc(F)cc1	inactive: -6.14%	
O=C(CSc1ccc2nnc(-c3ccccn3)n2n1)N1CCN(c2ccccc2)CC1		inconclusive: 10 µM [rising, partial curve]
O=C(O)[C@H]1CN[C@H](C(=O)O)C1	inconclusive: -2.94%	
COc1ccc2c(c1)C1(Nc3ccccc3-c3nc4ccccc4n31)C(=O)N2 (configuration not stated)		inconclusive: 10 µM [falling, single point]
CCn1cc2c(c1-c1cccc(C)c1)c(=O)n(C)c(=O)n2C	inactive: 10.5%	
CN(C)C(=O)C1CCN(Cc2c[nH]c3ccccc23)CC1	inactive: -11.2% [at 7.6 µM]	
COc1ccc(Oc2nc(C)cc(C)c2C#N)cc1	inactive: 12.7%	
CCCn1c(SCC(=O)O)nc2ccccc21	inconclusive: -16.3%	
Cc1ccccc1NS(=O)(=O)c1ccc2[nH]cc(C(=O)N(C)Cc3ccco3)c(=O)c2c1	inconclusive: -14.6%	
COCCCNC(=O)c1cn(C)c(=O)c2cc(OC)c(OC)cc12		inconclusive: 10 µM [rising, partial curve]
CCC(=O)Nc1ccc(NC(=O)c2cc3ccccc3o2)cc1	inactive: -0.74%	
Cc1c(OCc2ccc(C(=O)O)o2)ccc2c3c(c(=O)oc12)CCC3	inconclusive: 14.1% [at 7.6 µM]	
COC(=O)C1=CN(CCCN2CCCC2=O)C=C(C(=O)OC)C1c1ccccc1C(F)(F)F		inconclusive: 12.6 µM [rising, partial curve]
Cc1ccc(NC2=NCC(=O)N2Cc2ccc3c(c2)OCO3)cc1	inactive: 9.66%	
CCOc1cc(C2C(C(=O)OC)=CN(C3CCCC3)C=C2C(=O)OC)cc(Br)c1O	inconclusive: 28.6%	
CCCOc1ccccc1NC(=O)c1ccc(N)cc1	inactive: 9.08%	
O=C(CS(=O)(=O)Cc1ccccc1)NCC1CCCO1 (configuration not stated)		inconclusive: 15.8 µM [rising, partial curve]
CC(C)c1nc2oc3c(N4CCNCC4)ncnc3c2c2c1CCC2	inactive: 8.55%	
COc1ccc(OCCN2CCN(C3CC(=O)N(CCC(C)C)C3=O)CC2)cc1 (configuration not stated)	inactive: -4.18%	
COc1ccc(OC)c(NC(=O)c2ccc(NS(=O)(=O)c3c(C)noc3C)cc2)c1		inconclusive: 12.6 µM [rising, single point]

SMILES	activity change, negative = inhibition	Potency
CCCc1c(C(=O)OCC)[nH]c2c1C(=O)CCC2		inconclusive: 12.6 µM [rising, single point]
CC(C)CNc1oc(-c2ccc(F)cc2)nc1C#N		inconclusive: 10 µM [rising, partial curve]
Cc1ccccc1-n1c(=O)cc(N2CCN(Cc3ccccc3)CC2)[nH]c1=O		active: 15.8 µM
CCn1cc(Br)c(C(=O)Nc2ccc(C(=O)OC(C)C)cc2)n1	inactive: 9.1%	
COc1cc(=O)n(C)c2c(OC[C@@H](O)C(C)(C)O)cccc12		active: 25.1 µM
CC(C)c1nc(SCC(=O)NCc2ccccc2)n[nH]1		inconclusive: 5.01 µM [falling, single point]
CC1(C)NC(=O)N(CCOc2cccc(Oc3ccccc3)c2)C1=O	inconclusive: -4.66%	
COc1cc2c(cc1OC)C1=C(C#N)COCN1CC2		inconclusive: 3.16 µM [rising, partial curve]
Cc1nccn1-c1c2c(c(C#N)c3nc4ccccc4n13)CCCC2	inactive: -8.14%	
O=c1cc(-c2ccc(Cl)c(Cl)c2)[nH][nH]1	inconclusive: 7.27%	
CC1(C)CC(=O)C2=C(C1)OC(N)=C(C#N)C2c1cccc(OC(=O)c2ccco2)c1 (configuration not stated)	inconclusive: 29.5%	
CCCCCCc1ccc(OCC(=O)O)cc1OCC(=O)O	inactive: -5.53%	
Cc1cccc(CSC2=NCCN2C(=O)c2ccc(Br)o2)c1		inconclusive: 10 µM [rising, partial curve]
O=C1c2ccccc2C(=O)c2c(Nc3cc4c5c(ccc6c7ccc8c9c(cc(Nc%10cccc%11c%10C(=O)c%10ccccc%10C%11=O)c(c3c56)c97)-c3ccccc3C8=O)C(=O)c3ccccc3-4)cccc21	inactive: 3.98% [at 7.6 µM]	
O=C(CSc1nnc(-c2cnccn2)n1Cc1ccco1)Nc1ccc(Br)cc1		inconclusive: 0.631 µM [falling, single point]
Cc1ccc(C(=O)c2coc3ccc(O)c(CN4CCN(C)CC4)c23)cc1	inactive: 2.5%	
COc1ccc(C(=O)CSc2ncn[nH]2)cc1OC		inconclusive: 15.8 µM [rising, single point]
O[C@@H](c1cc(C(F)(F)F)nc2c(Cl)cc(Cl)cc12)[C@@H]1CCCCN1	inactive: -11.8% [at 7.6 µM]	
Cc1ccc(CSC2=Nc3ccccc3C3=NC(CCC(=O)NCc4ccco4)C(=O)N23)cc1 (configuration not stated)	inconclusive: 11.9%	
CCN(c1cccc(C)c1)S(=O)(=O)c1ccc2c(c1)CCN2C(C)=O	inconclusive: 12.6%	
CN(C)c1ncc2nc(-c3cc(F)cc(F)c3)c(=O)n(-c3ccccc3)c2n1		inconclusive: 0.631 µM [rising, full curve]

SMILES	activity change, negative = inhibition	Potency
Cc1cc(N2CCC(C(=O)Nc3ccc(F)cc3)CC2)nc(-c2ccccc2)n1	inconclusive: -11.2%	
COc1ccc2c(c1)CCc1c(C(=O)N3CCOCC3)noc1-2		inconclusive: 15.8 µM [rising, partial curve]
c1ccc2c(c1)Cc1cc3ccccc3nc1-2		inconclusive: 15.8 µM [rising, single point]
N[C@@H](Cn1cc(I)c(=O)n(Cc2ccc(C(=O)O)cc2)c1=O)C(=O)O	inactive: 0.795%	
CCOC(=O)c1cn(-c2ccccc2)nc1-c1ccncc1		active: 10 µM
CC(C)Cn1cc(C(=O)NCc2cccs2)c2c3ccccc3n(C)c2c1=O	inconclusive: 2.04%	
COc1ccc(CCNC(=O)c2nnn(CC(=O)Nc3ccccc3)c2N)cc1OC	inactive: 15.4%	
Cc1cc(NC(=O)CSc2ccc3c(c2)OCCO3)no1	inactive: -1.28%	
COc1cc(OC)c(-c2nc3cnccc3n2C)cc1OC		inconclusive: 25.1 µM [rising, single point]
COc1cc(/C=C(/C#N)c2ccc(F)cc2)ccc1OCc1ccc(C(=O)O)o1	inconclusive: -26.6%	
CN(C)c1ccc(-c2ccc3ncnc(N4CCNCC4)c3c2)cc1		inconclusive: 12.6 µM [rising, partial curve]
CCOC(=O)C1CCN(C(=O)Nc2ccc(Cl)cc2)CC1	inactive: -3.28%	
CCCCCOC(=O)c1[nH]c2c(c1C)C(=O)C(C(=O)OC)C(C)C2 (configuration not stated)		inconclusive: 2 µM [rising, full curve]
CCC1CCCCN1CC(=O)Nc1cc(C)nn1-c1nc(C)cc(C)n1 (configuration not stated)		active: 2.51 µM
COc1cc2c(cc1OC)C(=O)Cc1ccc3c(c1CN(C)CC2)OCO3	inconclusive: -2.55%	
CCOC(=O)Cc1csc(NC(=O)COc2ccc(N(C)S(=O)(=O)c3cccs3)cc2)n1	inactive: -19.6%	
COc1ccc(N=C2SC(C(=O)O)CC(=O)N2C)cc1 (configuration not stated)	inactive: 5.48%	
COc1ccccc1C1C(C(=O)NCc2ccccc2)=C(C)Nc2ncnn21 (configuration not stated)	inconclusive: 4.27%	
CCOC(=O)c1cnc(-n2cc(C)cn2)nc1NCc1ccc2c(c1)OCO2		active: 2.51 µM
CCCN1CCN(C(=O)Cn2cccc2C(=O)c2ccccc2)CC1	inconclusive: 7.72%	
C=CCOC(=O)C1=C(C)NC(=O)NC1c1cn(-c2ccccc2)nc1-c1cccs1 (configuration not stated)	inconclusive: 25.3%	

SMILES	activity change, negative = inhibition	Potency
C[N+](C)(C)/N=C\c1ccc(O)c(O)c1	inactive: 0.745% [at 7.6 µM]	
COCCNc1ccnc(-c2cccc(NS(C)(=O)=O)c2)n1	inconclusive: 0.753%	
CCOC(=O)c1c(C)nc2ncccn12		inconclusive: 25.1 µM [rising, single point]
COc1cccc(OC(=O)CSc2nnc(-c3ccccc3Br)o2)c1		inconclusive: 3.98 µM [rising, single point]
Cc1cccc(CNc2ncnc3ccc(-c4cccc(NS(C)(=O)=O)c4)cc23)c1	inconclusive: -29.5%	
COC(=O)CSc1nnc(CNC(=O)c2cccs2)n1-c1cc(OC)ccc1OC	inconclusive: 2.8%	
CC(C)(C)C(=O)OCCn1c(=O)c2cc3c(=O)n(CCOC(=O)C(C)(C)C)c(=O)c3cc2c1=O	inconclusive: 8.48%	
O=CN[C@@H](Cc1cnc[nH]1)C(=O)O	inactive: 10.5% [at 7.6 µM]	
CCSCc1nnc(SCC(=O)Nc2cccc(SC)c2)n1C	inactive: -3.92%	
O=C(O)COc1ccccc1C1C2C(=O)N(c3ccc(F)cc3)C(=O)C2ON1c1ccccc1 (configuration not stated)	inactive: -5.62%	
O=C(O)[C@H]1CCCC[C@@H]1C(=O)Nc1nc2ccccc2[nH]1	inactive: -0.824% [at 7.6 µM]	
C=CCOC(=O)C(C#N)c1nc2ccccc2nc1N1CCN(Cc2ccc3c(c2)OCO3)CC1 (configuration not stated)		inconclusive: 12.6 µM [rising, partial curve]
Cc1ccc(Cl)cc1N1CCN(Cc2nnnn2C2CCCCC2)CC1	inactive: 10.4%	
C(=N\c1nccs1)/Nc1nccs1		inconclusive: 3.98 µM [falling, single point]
O=C(Nc1ccc2nccnc2c1)c1cnccn1	inactive: -3.83%	
Nc1ccc(C(=O)OCCCc2nc3ccccc3[nH]2)cc1		inconclusive: 10 µM [rising, single point]
Cc1ccc(CNc2ccc(N3CCOCC3)cc2)s1	inactive: 8.51%	
CCCCCCCCCCCCCCCCCC(=O)NC[C@@H](COP(=O)([O-])OCC[N+](C)(C)C)OCC	inconclusive: 68.6% [cytotoxic]	
COc1ccc(-c2nnc(SCC(=O)OC3CCCCC3)o2)cc1OC		inconclusive: 25.1 µM [rising, single point]
